This is an account of results in publication PMC12136788.

This is one part of the list.

The labels stand for the following.
B1: chr3:139075817:139075818:+_ENSG00000175110_ENST00000310776|hu_hu|FALSE|FALSE (ssRNA)
RNA: GGGAGUUCUACAGUCCGACGAUCUUAGGAAGCUGCAGAAUGGCGACUGAGUGCUUCUUGAUAAGUCUGCAGUGUUAGUUCUAUAUAGGCUCCCUUCUGUGCUUCUGUUUUUGCAAAGACCUUGAUUAAAUUUAUUCCCUCAGCCAACAGAGGAUUGAGCAUCA
B2: chr13:40293908:40293909:+_ENSG00000133103_ENST00000455146|hu_hu|motif|central (ssRNA)
RNA: GGGAGUUCUACAGUCCGACGAUCUGCUUCGAUCUGAAACUGUAGCAUUUCCAGACGUCUGUCAGUGAAUUCAAAUAGAGCGGAUGUUGUCUUCAUCAUAUAUAGUGAAUUGACCAUGAAAGUGGCCAUGUCAGCUGUGCCUAACAACAGAGGAUUGAGCAUCA
B3: chr7:90019433:90019434:+_ENSMUSG00000057706_ENSMUST00000082237|mus_hu|mus_mus_mus_hu_True|88_108 (ssRNA)
RNA: GGGAGUUCUACAGUCCGACGAUCAAAAAUACAGUGUUUCUUUGCCAAAGGCCAUACCUAAAAUAAAAAGAUUUAACCCAGCUACAAAAAAGUUCACUGAACUUAAAUUAAAAUACUUGUAAACAUCUUUGCAAUAUGAAAUAUCAACAGAGGAUUGAGCAUCA
B4: chr16:37883567:37883568:+_ENSMUSG00000034158_ENSMUST00000078717|mus_mus|motif|central (ssRNA)
RNA: GGGAGUUCUACAGUCCGACGAUCUCGAUCCACACAGAGUACUUGCGCUCAGGAGGAGCAAUGAUCUUGAUCUUCAUGGUGCGGGGAGCCAGAGCAGUAAUCUCCUUCUGCAUCCUGUCAGCAAUGCCUGGGUACAUGGUGGUACAACAGAGGAUUGAGCAUCA
B5: chr1:225611761:225611762:-_ENSG00000143815_ENST00000272163|hu_mus|hu_hu_hu_mus_True|48_98 (ssRNA)
RNA: GGGAGUUCUACAGUCCGACGAUCCCAGGCCAUCGGCCUCUUACCACUUCACCCUCAACAAACUUCCUACUUGGCAUUUUCUAAAAUUAACCUGCGCGCGCUCCGGCGGGAACUCCAGCCACUCCAGGACAGUCACCAGCAGCCCAACAGAGGAUUGAGCAUCA
B6: chr18:35108781:35108782:-_ENSMUSG00000024359_ENSMUST00000025217|mus_mus|FALSE|FALSE (ssRNA)
RNA: GGGAGUUCUACAGUCCGACGAUCGAGUUUUCCAUGAGCCUCAACCCAAGCAUCACCAUUGGAGGCACGGACAAUUUUAAAAGGAACAUUCUUAGUGUCUUUCUGUACUUCAGGGUCAUCAUAUCGUCGUCCAAUAAGACGCUUCAACAGAGGAUUGAGCAUCA
B7: chr19:41288738:41288739:-_ENSMUSG00000025016_ENSMUST00000025989|mus_hu|FALSE|FALSE (ssRNA)
RNA: GGGAGUUCUACAGUCCGACGAUCAACUUGGGGGGAAAAAAGAUAAUCACUUUAGACAUUCAGUUAAAAUGUAGUUUAUCUAAAUCUCAAAAUGUUUAAUAAAAACAAGUAUCUUCUCCAUUUAACACUUUGCUUUCUAACUGUCAACAGAGGAUUGAGCAUCA
B8: chr4:48853911:48853912:+_ENSG00000109180_ENST00000264312|hu_hu|FALSE|FALSE (ssRNA)
RNA: GGGAGUUCUACAGUCCGACGAUCAGCAGAUUCAUUCAUAGAAGAACUGAAUGGAAUUGGCUCAUAAUGAGGAAGCAUUUCUAUGUUGUCUGCUGCUGGGGAUGUCACAAAAGAUGAUUGACCACUCACACUUGAGUCAUAUUUCAACAGAGGAUUGAGCAUCA
B9: chr10:85910540:85910541:+_ENSG00000165678_ENST00000372134|perfect_dup|motif|central (ssRNA)
RNA: GGGAGUUCUACAGUCCGACGAUCUUCUGCACGCUUGAUUACUUUCUGGGUAUCAUACAGAAGGAACAUGCUGAAAAGAACGGAUCCACCGUACAUUGCCACUGAGUAAAGAGUGGCACCAGCCACGGUGGUAGGUGGAAGAAACAACAGAGGAUUGAGCAUCA
B10: chr16:94664741:94664742:+_ENSMUSG00000040785_ENSMUST00000117648|mus_hu|mus_mus_mus_hu_False|18_108 (ssRNA)
RNA: GGGAGUUCUACAGUCCGACGAUCUGGCAUGGAUCUUGGUAGCUGAUAUUCAGGAGAAAGGCUGGCCAAGGGUGUAUAUAUGCUGGUGUACUGGGGCAAACCUGGUAACACGUUUAUGUACGCUGGUGGUGUCUGGGUGAUAUCCAACAGAGGAUUGAGCAUCA
B11: chr11:110355629:110355630:+_ENSMUSG00000020623_ENSMUST00000020949|mus_mus|FALSE|FALSE (ssRNA)
RNA: GGGAGUUCUACAGUCCGACGAUCAUGGAUAACAGACAGCUUACUGUGUAAAUGUUCUAACGCUUUUACAAUAGAAACUGCUAUCUUUCCUAAGAUAUCCUCUGGAAUUGUUUGGCCUUUAUCAAUAACUUGUUUGUAGAAUUUCAACAGAGGAUUGAGCAUCA
B12: chr18:52893488:52893489:-_ENSG00000196628_ENST00000354452|hu_hu|hu_hu_hu_mus_True|8_98 (ssRNA)
RNA: GGGAGUUCUACAGUCCGACGAUCUAUUUAGACCAUUUCAAUGGAUUUAUGGCAUUUACUCAGUGCUGAUAGGUGGAAAAACUACUUCAACAGGGAUUUUUUUUUUCCUUAAUACAUGCCAAGAUUGGUGUGGCUGUAAAACAGCAACAGAGGAUUGAGCAUCA
B13: chr11:116106860:116106861:-_ENSMUSG00000020780_ENSMUST00000021133|mus_hu|FALSE|FALSE (ssRNA)
RNA: GGGAGUUCUACAGUCCGACGAUCAUGACCCUGCACACAUUUACCAGAAGACAACAGGGUGCUCUCCUGACACGCUGCUUAAGAACGUGUACAGACACAAGAUGUAGGAAUGCAGGGCCGAAGAUGUUAAACUCUUGCCCCGGGCAACAGAGGAUUGAGCAUCA
B14: chr1:212142006:212142007:-_ENSG00000143493_ENST00000366992|hu_mus|FALSE|FALSE (ssRNA)
RNA: GGGAGUUCUACAGUCCGACGAUCGAGAUCGAUCCGGAGCUUUACAAACUCACACUGAAAGCUCAAAGGAUUCAGCGGUGUGCUGGCGGCCGUUAGGGAGGCGAUCCCUUUGUGGUAGAACUUCAAAGACUCAGCAAUGCAGGACAACAGAGGAUUGAGCAUCA

In the experiment the target is T1, UNK ZnF1-3 (human, UniProt Q9C0B0 31-174).
T1 sequence: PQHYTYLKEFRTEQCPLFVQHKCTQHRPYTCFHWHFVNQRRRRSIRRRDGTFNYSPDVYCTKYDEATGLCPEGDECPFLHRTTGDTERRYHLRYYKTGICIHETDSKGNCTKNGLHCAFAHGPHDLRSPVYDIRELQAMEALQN
As to the kind of experiment: nsRBNS (natural sequence RNA bind-n-seq); RBNS binding buffer (assumed for nsRBNS): 25 mM Tris pH 7.5, 150 mM KCl, 3 mM MgCl2, 0.01% Triton X-100, 500 ug/ml BSA, 20 U/ml SUPERase-In, 4 C; UNK is unkempt and MSI1 is Musashi-1; names of the RNAs are library labels; protein concentration not given here; high values mean tight binding.
Molecule B1 came in with a binding signal of 0.865 enrichment R. As to B2, the binding signal is 0.981 enrichment R. For B3, the binding signal is 1.75 enrichment R. With B4 the figure was 1.17 enrichment R. The molecule B5 had a binding signal of 1.62 enrichment R.

Consider B6, for which the binding signal turned out to be 1.03 enrichment R. With B7, the binding signal is 0.808 enrichment R.

In the case of B8, the binding signal worked out at 2.5 enrichment R. For B9, the binding signal stood at 1.57 enrichment R. With B10 the figure was 0.942 enrichment R; with B11, 0.566 enrichment R; with B12, 0.945 enrichment R. As for B13, the figure is 1.02 enrichment R; as for B14, 1.18 enrichment R.
